Assay results reported in PubChem BioAssay AID1745853 (National Center for Advancing Translational Sciences (NCATS), 2022).
This is one part of the list. The main result of the screen is listed elsewhere. These columns were measured beside it and carry no call.

How the values were obtained:
Assay in all cases: Primary Screen for Target Class Profiling of Small Molecule Inhibitors of Methyltransferases
[1] = target: Glycine N-methyltransferase (Homo sapiens) (UniProt Q14749); conditions: purified enzyme, MTase-Glo SAH luminescence; measured here: GNMT inhibition; at 40 µM; stronger effect = lower value
Outline: (§1)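 Each enzyme was reacted with SAM and its substrate, with compounds tested once at 40 uM; SAH formed was read by MTase-Glo luminescence.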

[2] = target: Guanidinoacetate N-methyltransferase (Homo sapiens) (UniProt Q14353); conditions: purified enzyme, MTase-Glo SAH luminescence; measured here: GAMT inhibition; at 40 µM; stronger effect = lower value
Outline: as §1

[3] = target: Histamine N-methyltransferase (Homo sapiens) (UniProt P50135); conditions: purified enzyme, MTase-Glo SAH luminescence; measured here: HNMT inhibition; at 40 µM; stronger effect = lower value
Outline: as §1

[4] = target: Nicotinamide N-methyltransferase (Homo sapiens) (UniProt P40261); conditions: purified enzyme, MTase-Glo SAH luminescence; measured here: NNMT inhibition; at 40 µM; stronger effect = lower value
Outline: as §1

[5] = target: Phenylethanolamine N-methyltransferase (Homo sapiens) (UniProt P11086); conditions: purified enzyme, MTase-Glo SAH luminescence; measured here: PNMT inhibition; at 40 µM; stronger effect = lower value
Outline: as §1
On the % scale 0 is the no-effect control and ±100 the full control effect.

Row | Compound | activity change, negative = inhibition [1] [%] | activity change, negative = inhibition [2] [%] | activity change, negative = inhibition [3] [%] | activity change, negative = inhibition [4] [%] | activity change, negative = inhibition [5] [%]
1 | C=CCn1nc(C)c(CN2CC[C@H](N3CCN(C)CC3)[C@H](CCC(=O)O)C2)c1C | -5.91 | -5.75 | -2.06 | -7.61 | -20
2 | CN1C(=O)c2cc(C(=O)NCc3cccc(Cl)c3)nn2CC1(C)C(=O)NC1CCCC1 (stereo unspecified) | 4.71 | 4.9 | 0.617 | -1.86 | 2.54
3 | CN1C(=O)c2cc(C(=O)NCCc3ccc(Cl)cc3)nn2CC1(C)C(=O)NC1CCCC1 (stereo unspecified) | 4.12 | 0 | 1.47 | 1.55 | -1.98
4 | CN(C)[C@@H]1[C@@H](NS(=O)(=O)c2cccc3c2OCCO3)[C@H]2CCO[C@H]21 | -1.24 | 0.179 | 2.15 | -1.75 | 0.025
5 | COc1ccc(S(=O)(=O)N(CCO)c2ccccc2CN(C)C/C=C/c2ccc(Cl)cc2)cc1 |  | -12.7 |  | -31.6 | -18.5
6 | COc1cc(F)ccc1-c1nc(-c2c(C)noc2C)cc2[nH]c(C)cc12 | -2.76 | -1.5 | 1.04 | -44.4 | 1.83
7 | Cc1ccc(-c2nc(CN3CCCC3=O)no2)cc1 | -4.26 | -11.5 | -2.6 | -16.4 | -6.72
8 | CN1CCN(C(=O)c2nn(C)c3c2CCCC3)CC12CCNC(=O)CC2 (stereo unspecified) | -2.87 | -5.94 | -4.04 | -7.49 | -8.32
9 | Cc1ccccc1C(C(=O)NC1CCCCC1)N(C(=O)Cn1cnc2ccccc21)c1cccc(F)c1 (stereo unspecified) | -9.74 | -14.6 | -1.63 | -31.7 | -10.5
10 | COCCCN1C(=O)c2cc(-c3ccc(OC)cc3)nn2CC1(C)C(=O)NCc1ccccc1 (stereo unspecified) | 3.43 | 0.019 | 2.28 | 8.25 | -0.182
11 | CN1C(=O)c2cc3ccccc3n2CC1(C)C(=O)NCC(=O)NCc1ccccn1 (stereo unspecified) | 2.33 | 0 | 10.7 | 2.28 | 7.01
12 | CCCn1cc(S(=O)(=O)N2C[C@H](C3CC3)[C@@H](N)C2)cn1 | -3.65 | -6.18 | -1.34 | -6.93 | -6.26
13 | O=C(Nc1ccccc1Br)N[C@@H]1CCN(c2ccc(C(F)(F)F)cn2)C1 |  | -2.6 |  | -29.5 | -12.5
14 | CCOC(=O)c1cc2n(n1)CC(C)(C(=O)NCCOC)N(c1cc(Cl)ccc1OC)C2=O (stereo unspecified) | 3.56 | 3.94 | 6.63 | -0.148 | 0.297
15 | CCc1noc(-c2cn(C3CCN(C(=O)c4cc(Cl)ccc4F)CC3)nn2)n1 | -5.07 | -4.81 | -1.35 | -5.96 | -3.27
16 | O=C(C1CC1)N(C1CCOCC1)C1CCN(S(=O)(=O)C2CC2)CC1 | -0.228 | -6.58 | 0.337 | -10.2 | -24.9
17 | CCCN1CCN(C(=O)Cn2c(=O)oc3cc(S(=O)(=O)NCc4ccccc4)ccc32)CC1 | -5.04 | 0.402 | -0.142 | 3.6 | -3.56
18 | CCN1C(=O)c2cc(C(=O)NCc3cccc(C)c3)nn2CC1(C)C(=O)NC1CCCC1 (stereo unspecified) | 5.61 | 0 | -2.37 | 6.97 | 5.85
19 | COc1ccc(N(C(=O)c2ccco2)S(=O)(=O)c2ccc3c(c2)n(C)c(=O)n3C)cc1 | -5.1 | 6.55 | 3.94 | -4.39 | -0.079
20 | Cc1ccc(N2C(=O)c3cc4sccc4n3CC2(C)C(=O)NC2CCCCCC2)cc1 (stereo unspecified) | -7.6 | 0.699 | -3.02 | -6.52 | -7.28

Row | Compound | activity change, negative = inhibition [1] [%] | activity change, negative = inhibition [2] [%] | activity change, negative = inhibition [3] [%] | activity change, negative = inhibition [4] [%] | activity change, negative = inhibition [5] [%]
21 | CC1CCCC(NC(=O)C2(C)Cn3c(ccc3-c3ccco3)C(=O)N2CCc2ccccc2)C1C (stereo unspecified) | -10.4 | 4.66 | -5.47 | -15.5 | -1.9
22 | Cn1cc(C(=O)NC2CC(c3cc(N4CCOCC4)ncn3)C2)cn1 (stereo unspecified) | -9.55 | -7.11 | -3.81 | -36.6 | -3.45
23 | COc1cccc(CN2C(=O)c3cc(C4CC4)nn3CC2(C)C(=O)NC2CCCCCC2)c1 (stereo unspecified) | 2.02 | 0 | 9.62 | -12.8 | 2.42
24 | CCCn1c(=O)c2ccc(C(=O)NCC(C)C)cc2n2c(SCC(=O)NC(C)(C)C)nnc12 | 8.15 | 1.2 | 6.89 | 6.54 | 9.59
25 | Cc1cc2c(cc1S(=O)(=O)Nc1ccccc1)n(C)c(=O)n2C | 8.37 | 0 | 6 | -3.5 | 2
26 | Cc1ccc2nc(N)[nH]c(=O)c2c1Sc1ccncc1 | -18.1 | -3.76 | -50.7 | -19.6 | -3.04
27 | O=C(c1ccccc1)c1ccc2n1CCC2C(=O)O (stereo unspecified) | -2.88 | 4.76 | -2.35 | -7.9 | 2.02
28 | CC(C)CCn1c(=O)c2ccc(C(=O)NC(C)C)cc2n2c(=O)n(Cc3ccccc3F)nc12 | 1.2 | 4 | -0.103 | 0.618 | -0.283
29 | Cn1ccnc1CN1CCOC[C@H](Oc2ccc(C(F)(F)F)cc2)C1 | -7.59 | -5.72 | -5.09 | -12.8 | -6.83
30 | CC(C)NC(=O)c1ccc2c(=O)n(Cc3ccccc3)c3nnc(SCC(=O)NC(C)(C)C)n3c2c1 | -1.29 | 3.28 | 0.564 | 2.35 | -0.928
31 | O=C([C@@H]1C[C@H](Oc2cccnc2)CN1S(=O)(=O)c1cccs1)N1CCCC1 | -3.47 | -0.517 | -0.585 | -3.85 | -0.461
32 | C=CC(C)(C)c1[nH]c2ccccc2c1C[C@@H]1NC(=O)[C@H](C)NC1=O | -3.69 | -3.83 | 8.11 | -17.5 | -13.5
33 | CCn1c(=O)n(CC)c2cc(S(=O)(=O)Nc3ccccc3OC)ccc21 | 15.9 | 2.92 | 11.2 | 2.2 | 8.69
34 | CS(=O)(=O)c1ccc(N2CCN(CC3(O)CNCCOC3)CC2)c(F)c1 (stereo unspecified) | -1.88 | -0.868 | -0.275 | -5.88 | -6.79
35 | Fc1cccc(-c2nnn3c2nc(NCC2CCCO2)c2cc(Cl)ccc23)c1 (stereo unspecified) | -3.15 | 4.46 | 3.3 | -1.82 | -5.69
36 | COC(=O)c1cccc(NC(=O)N2Cc3c(sc4c3CCCC4)-n3cccc3C2c2cc(F)cc(F)c2)c1 (stereo unspecified) | 2.42 | 0.846 | 3.78 | 1.3 | 6.23
37 | O=C(c1nnc(COc2ccc3c(c2)OCO3)n1Cc1ccccc1)N1CCC[C@@H]1c1ccc(Br)cc1 | -3.01 | -0.476 | -2.96 | -10.6 | 9.27
38 | COc1ccc(N(C(=O)c2cccnc2)S(=O)(=O)c2ccc3c(c2)n(C)c(=O)n3C)cc1 | -5.05 | 0.164 | 9.36 | 12.8 | 3.23
39 | O=C(C1CCCC1)N1CCC(C(=O)N2CCC(c3nc4ccncc4[nH]3)C2)CC1 (stereo unspecified) | -7.42 | -6.38 | -7.57 | -11.8 | -15.6
40 | CN1C[C@@H](NC(=O)NC2CCCCC2)C[C@H]1c1nc(-c2cccnc2)no1 | -0.719 | -1.11 | 0.301 | 1.67 | 3.09

Row | Compound | activity change, negative = inhibition [1] [%] | activity change, negative = inhibition [2] [%] | activity change, negative = inhibition [3] [%] | activity change, negative = inhibition [4] [%] | activity change, negative = inhibition [5] [%]
41 | CCOC(=O)c1cc2n(n1)CC(C)(C(=O)NCCC(C)C)N(Cc1ccc(F)cc1)C2=O (stereo unspecified) | -4.85 | 5.04 | -2.96 | 3.98 | -3.33
42 | CN(C)S(=O)(=O)N1CCc2c(nc3cc(-c4ccccc4)[nH]n3c2=O)C1 | -14.4 | -8.33 | -14.4 | -14.2 | -5.81
43 | COCCCN1C(=O)c2cc3ccccc3n2CC1(C)C(=O)NC1CCCCCC1 (stereo unspecified) | -1.73 | 3.86 | -0.465 | -5.49 | -1.37
44 | Cc1ccc(NC(=O)Cn2nc3n(C(C)C)c(=O)c4ccc(C(=O)NCC(C)C)cc4n3c2=O)c(C)c1 | 3.82 | 0.174 | 6.72 | 2.02 | 2.29
45 | Cc1cc2c(cc3n2CC(C)(C(=O)NC2CCCCCC2)N(Cc2ccccc2C)C3=O)o1 (stereo unspecified) | 3.74 | 0.489 | 7.51 | -1.65 | -0.813
46 | CC1=CC(=O)CC(C)(C)C1CCC(C)OC1OC(COC(=O)c2cc(O)c(O)c(O)c2)C(O)C(O)C1O (stereo unspecified) | 0 | 5.05 | 8.7 | -8.01 | 2.02
47 | CCc1nc2c(=O)n(CC(=O)NCCC3=CCCCC3)nc(C)c2s1 | -3.47 | 0.468 | -0.32 | -7.25 | -4.53
48 | CCCCOC(=O)COc1ccc2c(-c3ccccc3)cc(=O)oc2c1C | -3.51 | 0 | 7.54 | -1.16 | -3.35
49 | CCN(CC)C(=O)[C@@H]1CCCN1C1(C(=O)NC)COC1 | -3.8 | -6.73 | -1.56 | -11.6 | -6.21
50 | CN1CCN(c2ccc(-c3nccc4c(=O)cc(N(C)C5CCOCC5)oc34)cn2)CC1 | -1.61 | -2.08 | -4.28 | -1.42 | -0.157
51 | Cc1ccc(CN2C(=O)c3cc4occc4n3CC2(C)C(=O)NC2CCCCC2)cc1 (stereo unspecified) | -7.52 | 0.338 | -0.685 | -2.08 | -4.28
52 | COc1ccc(C2Oc3c(OC)cc(CCCO)cc3C2COC2OC(CO)C(O)C(O)C2O)cc1OC (stereo unspecified) | 2.06 | 6.45 | 10.1 | -7.43 | 5.23
53 | COc1ccc(CNC(=O)Cn2ccc3cc(S(=O)(=O)N4CCCC4)ccc32)c(OC)c1 | 5.2 | 4.62 | 5.27 | 0.727 | 3.13
54 | Cc1cc(F)ccc1NS(=O)(=O)c1cc2c(cc1Cl)n(C)c(=O)n2C | 12.2 | 1.89 | 3.18 | 7.9 | 8.78
55 | CCCN1C(=O)c2cc(C(=O)NCc3ccccn3)nn2CC1(C)C(=O)NC1CCCC1 (stereo unspecified) | 4.7 | 0 | -5.35 | 1.21 | 3.23
56 | CCCn1c(=O)c2ccc(C(=O)NC3CCCCC3)cc2n2c(=O)n(CC(=O)Nc3cccc(C)c3)nc12 | 1.54 | 0.846 | 4.13 | 2.3 | 2.5
57 | Cc1ccc(N2C(=O)c3cc(-c4cccs4)nn3CC2(C)C(=O)NC2CCCCC2)c(C)c1 (stereo unspecified) | 5.08 | 0 | 8.39 | 3.11 | 4.45
58 | OC[C@H]1O[C@@H](O[C@H]2[C@H](OCCc3ccccc3)O[C@H](CO)[C@@H](O)[C@@H]2O)[C@H](O)[C@@H](O)[C@@H]1O | -4.16 | -3.66 | 3.79 | -12.6 | -10.6
59 | Clc1ccc2ncc(-c3cccc(NC4CNC4)n3)n2c1 | 4.43 | -0.951 | -39.3 | -5.56 | 0.078
60 | COc1cccc(CN2C(=O)c3cc(-c4ccco4)nn3CC2(C)C(=O)NC2CCCCC2)c1 (stereo unspecified) | -11.8 | -10.4 | -0.037 | -16.3 | -9.82
